For 8 compounds, mutagenic call results are on record in PubChem BioAssay AID1259407 (Chemical Carcinogenesis Research Information System (CCRIS), 2018).

For this data set, the system named is CCRIS mutagenicity, Ames/micronucleus/aberration tests. Nature of the data set: CCRIS mutagenicity studies.
[1] abbreviates: Test System: AMES SALMONELLA TYPHIMURIUM, Strain/Indicator: TA98, Metabolic Activation: NONE, Method: STANDARD PLATE.

Entries after “also recorded” stand apart in the source; their conditions may differ. For part of its entries the source gives two or more results. The list is limited to them. No rule for the calls is given here. The source may hold further records. Values that stand side by side repeat one measurement in other runs, samples, wells, individuals or studies. What stands in brackets tells the records apart. A, B and so on number the origins entry by entry.

Regarding `CC(=O)Nc1ccc2ccc3c(O)ccc4ccc1c2c43`, under setting [1], the mutagenic call was “inactive; negative [study A, 0.1 to 5 µg/plate] and active; positive [study B, 0.01 to 5 µg/plate]”.

Regarding `COC1=CC(=O)c2c(nc(C)c3c2[nH]c2ccccc23)C1=O`, the mutagenic call (Test System: AMES SALMONELLA TYPHIMURIUM, Strain/Indicator: TA102, Metabolic Activation: NONE, Method: STANDARD PLATE) was “inactive; negative [study A, 5 to 30 µg/plate] and active; positive [study B, 2.5 to 20 µg/plate]”.

On to `c1ccc2c(c1)CCCC2`, for which the mutagenic call (Test System: MOUSE LYMPHOMA, Strain/Indicator: L5178Y (TK+/TK-), Metabolic Activation: NONE, Method: SUSPENSION/PLATE) is “inactive; positive. reevaluation of results: negative [study A]; also recorded: inactive; negative [study B]”.

For the compound `c1ccc2cc3c(ccc4ccccc43)cc2c1`, where the note is “Test System: AMES SALMONELLA TYPHIMURIUM, Strain/Indicator: TA98, Metabolic Activation: RAT, LIVER, S-9, AROCLOR 1254, Method: STANDARD PLATE”, the mutagenic call is “inactive; negative [study A] and active; positive [study B]”.

For `O=C(O)c1cc2c(c3c1c([N+](=O)[O-])cc1ccccc13)OCO2`, the mutagenic call under setting [1] was “active; positive [study A] and inactive; negative [study B]”.

As for `COc1cc(CNC(=O)CCCCCCC(C)C)ccc1O`, under setting [1], the mutagenic call is “active; positive [study A, 100 to 1000 µg/plate] and inactive; negative [study B, 10 to 10000 µg/plate]”.

With `CC(C)(C)C1=CC(=O)C=CC1=O`, the mutagenic call is “inactive; negative [study A, 0 to 10 µg/plate] and inactive; negative [study B, 0.05 to 10 µg/plate] and active; positive [study C, 2 to 52 µg/plate]” (Test System: AMES SALMONELLA TYPHIMURIUM, Strain/Indicator: TA98, Metabolic Activation: NONE, Method: PREINCUBATION); “inactive; negative [study A, 0 to 10 µg/plate] and inactive; negative [study B, 0.05 to 10 µg/plate] and active; positive [study C, 2 to 52 µg/plate]” (Test System: AMES SALMONELLA TYPHIMURIUM, Strain/Indicator: TA100, Metabolic Activation: NONE, Method: PREINCUBATION).

For `c1ccc2cc3c(ccc4ccncc43)cc2c1`, under “Test System: AMES SALMONELLA TYPHIMURIUM, Strain/Indicator: TA100, Metabolic Activation: NONE, Method: STANDARD PLATE”, the mutagenic call was “inactive; negative [study A, 0.1 to 50 µg/plate] and active; positive [study B, 0 to 50 µg/plate]”.
